Laboratory results: paper PMC4336329 (PLoS ONE, 2015)
Among all 310,000 compounds or so, about 2,200 (0.71%) showed an effect of 50% or more. Effects have a minus sign here. The list shows a part of the results. Where a SMILES comes first, the peptide text is derived from it. [ ]: non-standard residue; d: D form. pGlu = O=C1CC[CH](C(=O)O)N1

Molecular target: human ether-à-go-go-related gene (hERG) potassium channel (human, UniProt Q12809)
Test: primary screen, population patch clamp on CHO cells stably expressing hERG

Chain of human ether-à-go-go-related gene (hERG) potassium channel (Q12809 whole entry, looked up): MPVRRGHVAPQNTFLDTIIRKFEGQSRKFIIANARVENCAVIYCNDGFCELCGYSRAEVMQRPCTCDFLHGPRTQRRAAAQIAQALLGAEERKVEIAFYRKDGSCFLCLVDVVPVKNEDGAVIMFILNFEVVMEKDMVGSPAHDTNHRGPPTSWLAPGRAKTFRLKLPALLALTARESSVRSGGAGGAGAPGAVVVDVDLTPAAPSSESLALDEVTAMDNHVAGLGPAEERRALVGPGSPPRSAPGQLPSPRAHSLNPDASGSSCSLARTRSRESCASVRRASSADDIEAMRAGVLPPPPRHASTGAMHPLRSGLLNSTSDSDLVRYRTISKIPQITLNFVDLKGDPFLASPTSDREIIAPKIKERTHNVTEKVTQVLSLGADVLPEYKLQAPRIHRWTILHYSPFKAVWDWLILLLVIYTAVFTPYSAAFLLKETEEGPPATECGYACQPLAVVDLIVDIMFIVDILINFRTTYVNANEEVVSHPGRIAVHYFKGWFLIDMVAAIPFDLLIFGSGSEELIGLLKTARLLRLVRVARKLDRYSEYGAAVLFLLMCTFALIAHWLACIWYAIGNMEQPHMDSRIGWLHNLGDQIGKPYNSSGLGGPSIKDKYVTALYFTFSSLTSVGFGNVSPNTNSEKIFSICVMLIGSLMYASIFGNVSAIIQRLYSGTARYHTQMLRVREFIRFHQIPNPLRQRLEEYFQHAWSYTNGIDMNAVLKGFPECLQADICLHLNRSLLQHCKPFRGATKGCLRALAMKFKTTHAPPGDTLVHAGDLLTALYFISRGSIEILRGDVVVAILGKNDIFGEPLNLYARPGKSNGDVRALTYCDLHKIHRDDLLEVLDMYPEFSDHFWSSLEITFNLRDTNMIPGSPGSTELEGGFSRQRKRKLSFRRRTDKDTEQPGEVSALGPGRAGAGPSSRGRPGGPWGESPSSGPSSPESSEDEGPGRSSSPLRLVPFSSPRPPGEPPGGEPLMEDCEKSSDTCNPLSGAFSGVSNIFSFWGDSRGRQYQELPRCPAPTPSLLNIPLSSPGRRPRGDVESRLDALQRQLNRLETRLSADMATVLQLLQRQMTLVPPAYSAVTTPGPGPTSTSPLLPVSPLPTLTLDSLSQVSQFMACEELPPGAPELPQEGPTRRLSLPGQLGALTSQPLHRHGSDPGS

SMILES	hERG current change (%, negative = inhibition) at 1uM [%]
COc1ccc(N(C(=O)c2cccnc2)S(=O)(=O)c2ccc(F)cc2)cc1	0.97
O=C(CN(Cc1ccco1)C(=O)CNS(=O)(=O)c1ccc(Cl)cc1)NCc1ccco1	-22.6
Cn1cnc2cc(NS(=O)(=O)c3ccc(Br)cc3)ccc21	11.1
Cc1cccc(C)c1NC(=O)c1sccc1SCC#N	-4.91
Cc1csc(-c2cccnc2)n1	11.2
Cc1cc(C(=O)N/N=C/c2ccc([N+](=O)[O-])o2)c(C)o1	12.4
Cc1ccc(S(=O)(=O)NCc2ccccc2)cc1C(=O)NCC1CCCO1 (stereo not drawn)	12.8
CCCCCN(C(=O)CCC(=O)OCC(=O)NC1CCC(C)CC1)c1c(N)n(CCCC)c(=O)[nH]c1=O (stereo not drawn)	16.2
CNC(=O)C(C#N)(Cc1cc(C(C)=O)ccc1OC)Cc1cc(C(C)=O)ccc1OC	14
C(=N\Nc1ncnc2sc3c(c12)CCC3)/c1cccs1	6.66
COc1ccc(C(C#N)N2CCOCC2)cc1 (stereo not drawn)	5.38
COCCNC(=O)/C(C#N)=C/c1nc(N(C)C)n(-c2ccc(F)cc2)c1Cl	10.3
Cc1ccc(N(C)S(=O)(=O)c2cc3c(cc2C)NC(=O)CO3)cc1	2.17
Cc1ccn2c(-c3n[nH]c(=S)n3C)c(C)nc2c1	10.3
Clc1ccccc1C1=NCc2nncn2-c2sc(Br)cc21	12.5
O=C(Nc1cccc(O)c1)C1CC(c2c(F)cccc2Cl)=NO1 (stereo not drawn)	-17.6
Cc1cc(Br)cc2c(C(=O)NCC3CCCO3)cc(-c3cccs3)nc12 (stereo not drawn)	15.3
CC(C)c1ccc2oc(=O)cc(CN3CCN(c4ccccc4)CC3)c2c1	-1.41
Cc1ccc(Cl)cc1NC(=O)CCC(=O)O	13
Cc1cc(C(=O)N/N=C/c2ccc(-c3cccc(Br)c3)o2)n[nH]1	16.2
S=c1[nH]nc(COc2ccccc2)n1/N=C/C=C/c1ccccc1	4.59
CNC(=O)c1[nH]nc2c1CCc1cc(OC)ccc1-2	11.1
CCCCOc1ccc(C(=O)NCC(=O)NCCOc2ccccc2)cc1	0.973

SMILES	hERG current change (%, negative = inhibition) at 1uM [%]
O=C(CC(=O)NC1CCCCC1)N/N=C/c1ccccc1Cl	15.4
Cc1cccc(Nc2nc(N)c(C#N)c(CC#N)c2C#N)c1	8.1
CCn1c(SCC(=O)c2ccc(Cl)s2)nnc1-c1cccs1	3.68
CC1(C)CC2CC(C)(CN2c2ncnc3ccc(Br)cc23)C1 (stereo not drawn)	8.62
CCOc1cc(/C=N/NC(N)=O)cc(Br)c1OCC(=O)Nc1ccccc1C	8.57
Cc1cnc([N+](=O)[O-])n1CCOC(=O)NC(=O)c1ccc(F)cc1	1.2
COCCn1nnnc1CN1CCC(C)CC1	3.23
CC(=O)n1cc(/C=N/NC(=O)c2ccccc2Cl)c2ccccc21	12.9
O=S(=O)(c1ccc(Cl)cc1)N1CCN(Cc2cccnc2)CC1	-2.19
CCNC(=O)C(CC(C)C)NC(=O)C(CO)NC(=O)C1CCC(=O)N1 (stereo not drawn) ([pGlu]-Ser-Leu-NHEt; configuration not given here)	13.7
CN1C(=O)NC(=O)[C@]2(Cc3ccccc3N3CCN(c4ccccc4)CC32)C1=O (stereo partly drawn)	8.88
CCN(CC)C(=O)C1CCCN(C/C=C/c2ccccc2)C1 (stereo not drawn)	-12
O=C(O)CCc1ccc(-c2ccccc2)n1CC(=O)Nc1cccc(C(F)(F)F)c1	18.4
O=C(O)C1CCN(C(=O)c2cc(F)cc3c2OCOC3)CC1	10.1
O=C(N1CCN(CCO)CC1)N1c2ccccc2CCc2ccccc21	9.15
Cc1cccc(OCC(=O)NCC(=O)N/N=C/c2cc(Br)cc(Br)c2O)c1	28
Cc1ccc(CNC(=O)C2CCC(=O)N(Cc3ccc(Cl)cc3)C2)cc1F (stereo not drawn)	-22.9
CCCSc1cc(=O)n(-c2ccccc2)nc1C(=O)O	9.06
O=C(N/N=C/c1ccc(Br)s1)Nc1ccccc1	8.11
O=C(CC1=NCCNC(c2ccccc2)C1)c1ccccc1O (stereo not drawn)	6.64
CCOC(=O)C(C)Sc1nnc(-c2ccccc2O)n1Cc1ccccc1 (stereo not drawn)	-3.58
O=C(NCCc1ccccc1)c1ccc2nccnc2c1	20.4
CC1(C)O[C@@H]2[C@H](O1)[C@@H](CO)O[C@H]2n1cnc2c(=O)[nH]cnc21	12.4

SMILES	hERG current change (%, negative = inhibition) at 1uM [%]
CCOc1ccc(/C=C/C(=O)Nc2ccc(C(N)=O)cc2)cc1OC	-3.73
CC(C)(C)c1ccc(-n2nc(C(N)=O)c(O)cc2=O)cc1	14.1
Cc1sc2ncn(CC(=O)N3CCN(c4ccccn4)CC3)c(=O)c2c1S(=O)(=O)N1CCCCC1	7.98
CC(Sc1nc2ncc(Cl)cc2[nH]1)C(=O)NC1(C#N)CCCCC1 (stereo not drawn)	8.62
Cc1cc(=O)[nH]c(N/N=C/C(C)c2ccccc2)n1 (stereo not drawn)	5.22
COc1cccc(C2C(C(C)=O)=C(O)C(=O)N2CCc2c[nH]c3ccccc23)c1 (stereo not drawn)	9.9
Cc1cc(Cl)ccc1OCCCC(=O)NCCN1C(=O)S/C(=C\c2cccnc2)C1=O	5.92
COc1ccc(C(=O)NCC(=O)OCC(=O)N2CCC(C)CC2)cc1OC	9.02
Cc1ccc(S(=O)(=O)N2CCCN(C(=O)c3ccc(-n4cccn4)cc3)CC2)cc1	-22
CN1CCC(=O)N([C@H](CN=[N+]=[N-])c2ccccc2)CC1	11.6
C=CCOC(=O)C(C#N)c1nc2ccccc2nc1N1CCC(C(=O)OCC)CC1 (stereo not drawn)	8.55
Cc1ccc(NC(=S)C2=C(O)c3sccc3N(C)S2(=O)=O)cc1	11.4
CCOC(=O)C1CCN(C(=O)COc2ccc(Br)cc2)CC1	-19.5
COc1ccccc1C(=O)N(C)CC(=O)Nc1ccc(N2CCOCC2)cc1	6.54
COc1ccccc1Nc1ccc(C(=O)NC2CCCCC2)cn1	1.13
Cc1ccc(NC(=O)CN2C(=O)C3C4C=CC(C4)C3C2=O)cc1S(=O)(=O)N(C)C (stereo not drawn)	10.6
CSCCCNC(=O)c1ccc(OC2CCN(C(=O)c3cccnc3)CC2)cc1	3.06
Cc1cccc(OCCC(=O)NCC(c2ccco2)N2CCCCC2)c1 (stereo not drawn)	7.87
Cn1ncc(Br)c1C(=O)N1CCCC1	14.4
CC(=C/c1ccc(C(C)C)cc1)/C=N/NC(=O)Cn1nnnc1N	15.6
O=C(Nc1nnc(S(=O)(=O)Nc2ccccc2)s1)c1ccccc1Cl	14.4
CCN(CC)c1cc(CS(=O)c2ccccc2)nc(-c2ccccc2)n1 (stereo not drawn)	14.5
CC(/C=C1\SC(=Nc2cccnc2)NC1=O)=C\c1ccccc1	13.9

SMILES	hERG current change (%, negative = inhibition) at 1uM [%]
C=CCOc1ccc(CNc2ccc3[nH]c(=O)[nH]c3c2)cc1	1.41
CC1CCc2nc3sc4c(c3c(N)c2C1)CCCC4 (stereo not drawn)	-1.17
CN1CCN(NC(=O)c2ccc(COc3ccccc3Br)o2)CC1	6.02
O=C(CN1CCN(C(=O)c2ccco2)CC1)Nc1ccccc1	6.56
O=C(Cn1[nH]c(=O)c2ccccc2c1=O)OCC(=O)c1ccc(Br)cc1	16.6
Cc1cc(C(=O)COC(=O)CNC(=O)c2ccc(F)cc2)c(C)n1Cc1ccco1	7.35
O=C(Cc1c[nH]c2ccccc12)NCc1ccncc1	6.5
CNCc1ccccc1OCC(=O)Nc1ccccc1OC	3.07
Cc1ccc(NC(=O)c2c(Cl)n(C)c3ccccc23)cc1	-8.64
CCc1ccccc1N1CCN(S(=O)(=O)c2cc(OC)ccc2OC)CC1	4.41
O=C(Nc1cccc(Br)c1)c1c(O)c2c(n(Cc3ccccc3)c1=O)CCCC2	7.82
OCC(O)C(O)C(O)C(O)c1nc2ccccc2[nH]1 (stereo not drawn)	-6.45
CCCCN1C(=O)C(O)(c2ccccc2)c2cc(Br)ccc21 (stereo not drawn)	7.66
O=C(Nc1cccc2ccccc12)c1cccc(F)c1	16
Clc1ncnc2c1oc1ccccc12	9.26
CCN(CC)CCN(C(=O)c1ccc(C(=O)c2ccccc2)cc1)c1nc2cc3c(cc2s1)OCO3.Cl	6.65
CNS(=O)(=O)c1ccc(N=Cc2c(C)[nH]n(-c3ccc(C)cc3C)c2=O)cc1	19.5
COc1ccc(-c2csc3ncnc(N4CCN(S(=O)(=O)c5cccc(C(F)(F)F)c5)CC4)c23)cc1	10.7
CCN(CC(=O)N1CCOCC1)S(=O)(=O)c1cc(Cl)ccc1Cl	-3.77
CCO[C@@H]1OC(C(=O)N2CCN(Cc3ccccc3)CC2)=C[C@H](c2coc3ccccc3c2=O)[C@H]1CCCO	10.4
C=CCNC(=O)CN1CCN(Cc2ccc3c(c2)OCO3)CC1.Cl	8.67
